# Results reported in the RNAGym collection of RNA variant scans (doi:10.1093/nar/gkz1192).
# Read counts are not given, so values of variants with three or more changes are uncertain.
# B1: CPEB3 Ribozyme (parent)
# chain: UAACAGGGGGCCACAGCAGAAGCGUUCACGUCGCAGCCCCUGUCAGAUUCUGGUGAAUCUGCGAAUUCUGCUGUAUAUCUC
# Variants of: B1
# Experiment: self-cleavage, relative activity (ratio to wild type); higher = more cleavage; in vitro, sequencing
# In short: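 After error-prone PCR and barcoding, CPEB3 ribozyme mutant libraries were transcribed with T7 RNA polymerase at 37°C for 5 hours, then given 15 min with DNase I before an EDTA stop, and they cleaved during both steps. Reverse transcription with template switching preceded Illumina sequencing. Relative activity divides a variant's cleaved/total read fraction by the unmutated ribozyme's. At least 5 reads were required per variant, and three batches were averaged.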
row,Variant,self-cleavage
1,A20U U26G A28G C29A U66C,0
2,A20G U60G G63C,0.24
3,A20G U51G U78C,0.89
4,A20U U26C A35G U48C A64G U66G A75G,0
5,A20G G30A U43C A56U U67C U69C A77U,0.15
6,A20G U25G U49C A57G U58A U69A C71A,0.36
7,A20G C44U A57G,0.11
8,A20U C39U A56U,0.18
9,A20G A35G A64G,1.23
10,A20G C40U U67C U69C A75U U80G,0.1
11,A20G G36C U66C,0.36
12,A20G U25C U26G G63A,0.42
13,A20G U58C U72A,0.14
14,A20G U51A U60C,0.16
15,A20G U25C G33A C34A U54A U78C,0.09
16,A20U U25C U26C,0.07
17,A20U C37U G63A U67C,0.12
18,A20G U43C A57G,0.17
19,A20U U26C U31C A35G U48A U49A U58C,0.1
20,A20G C38U U67C,0.24
21,A20G C40A A56U U58C,0.11
22,A20G U43C U72C,0.36
23,A20G U26C U43C U48C A56U U80C,0.1
24,A20G U49C U60A U74C,0.07

row,Variant,self-cleavage
1,A20U U26C C29U U49C,0.07
2,A20U C34G C68A,0
3,A20U U26G U43C U48C A64G U72C,0.27
4,A20G A64G U72A U76C,0.21
5,A20G U58C U80A,0.35
6,A20U A28G U31C U48C U51A A56G,0.26
7,A20G U43A U78C U80G,0.64
8,A20U U31C A35U U51A U80C,0.48
9,A20G A28G G52U C79G,0.78
10,A20G U41A A47G A64G U80G,0.24
11,A20G U49A A56U A64G A75U,0.94
12,A20G A28G U69A,0.07
13,A20G C34G A35G A47G,0.37
14,A20U U31C G46U A64U,0.13
15,A20U A45G U72G,0.2
16,A20U C32U U54C A57U U72C,0.1
17,A20U A56G A57G U76C,0.07
18,A20G U60A A77G,0.42
19,A20G U41C A45G U60C,0.93
20,A20G U54A A77G U80A,0.96
21,A20U C29U G52A U58C,0.05
22,A20G C23U U49G U54C C62U,0.11
23,A20G A47U U54C,0.11
24,A20G C29U G46C U58A A77G,0.12

row,Variant,self-cleavage
1,A20G A75G U80G,0.74
2,A20U C23G U54C,0.16
3,A20G U41C U80A,1.07
4,A20G U26A U49C U54C,0.21
5,A20G C39A U51C,0.31
6,A20G U26C U43G,0.16
7,A20G U48G U72C C79U,0.14
8,A20U U31A G36A G53A U80G,0.07
9,A20G C40U U69C U80C,0.29
10,A20U A35U U49A U54C G70A U80A,0.06
11,A20G G36A U69C U72C,0.06
12,A20U U25G G30A U67C U78A,0.11
13,A20U A56G G70A,0.14
14,A20G G24A A28G U49C U66G,0.15
15,A20G A35C U49A A75G U78A,0.2
16,A20G A35G A64U U67C,1
17,A20U A28U U49C,0.24
18,A20U C32U G52A A56U A57G U76G,0.09
19,A20U A28U A64U U67A G73A U74C A75G,0.15
20,A20G U49C U54G,0.12
21,A20G U49C U54C,0.43
22,A20U C38G A45G U54A C59A C81A,0.02
23,A20G A35G U67A U72C,1.22
24,A20G U48C A56U,0.2

row,Variant,self-cleavage
1,A20G G33A U72C,0.32
2,A20G U43C U80C,0.56
3,A20G A28U U49C U66C A77G,0.1
4,A20U G30U C32U A47C U51G,0.03
5,A20G U26C A45C U72A,0.16
6,A20G A56G A77U U78C,0.68
7,A20U A35G U72C,0.9
8,A20U U43A U51A C81U,0.49
9,A20G A45U U58C,0.03
10,A20U U26C U41C C71A A75C,0.11
11,A20G U25C A28G,0.36
12,A20U A57G U78C,0.23
13,A20U U25C A45U U54C U80C,0.15
14,A20G U60A A64G U80A,0.36
15,A20G G55U U69C A75U U80C,0.23
16,A20G U48C U58C,0.15
17,A20G G24A U25C U48C U72C,0.26
18,A20U U26C U43G A64G U72C,0.07
19,A20G A56G U67C,0.68
20,A20U U25C C32A A47U U72C U78A,0.11
21,A20U C44U U51C A64G U80C,0.07
22,A20U U25A U43C G63C,0.21
23,A20G C29G A47G U54C,0.2
24,A20G C39U U41A A75G,0.37

row,Variant,self-cleavage
1,A20G U25C A28G A57G,0.23
2,A20U A28U U80C,0.34
3,A20G U51A A56G U76C,0.73
4,A20G C38U U41C A75U,0.52
5,A20G U43A U72C U78C,0.76
6,A20G G53C U67C U76A U80C,1.17
7,A20G A28U C29U U31C A65G,0.06
8,A20G G36U U51C U80A,0.1
9,A20G A45C G46U U48A U60C U78C,0.05
10,A20G G36A G55A G63A,0.13
11,A20G C39U A57U U74C,0.16
12,A20G C29U U48C U49A A56U,0.24
13,A20G U25C A57G U72C,0.05
14,A20U A47G U58C,0.23
15,A20G U25C U31C C68U U80A,0.08
16,A20U G61U A65G U66C U69A,0.47
17,A20U A56U U69G U80C,0.11
18,A20G U26C U72C,0.2
19,A20G A28U A57G U66A,0.19
20,A20U A45G C71A U78C,0.12
21,A20G U31C A47G G61A U78C,0.1
22,A20U C37U U49A U69C,0.06
23,A20U G42A A57U A64G,0.06
24,A20G A35U U67A A75U,0.29

row,Variant,self-cleavage
1,A20U C32A U41C A45G A75U,0.08
2,A20G G33A A45G U67A,0.37
3,A20U A57G G61A,0.16
4,A20G C40A U51C U69C,0.12
5,A20G U43C U72A U80C,0.83
6,A20G U41A U60C,0.61
7,A20G G61A U72A U80C,0.46
8,A20U U41C C81U,0.34
9,A20U A28U A35G G42A U60C U76A U78C,0.06
10,A20G U41C U43C C59A U69C A77U,0.1
11,A20G U26C U51A G63U U72A,0.15
12,A20G C40U U69C,0.41
13,A20U U26C U41C,0.26
14,A20U U25A A28G C40U U41G U78C,0.15
15,A20G U25C U43C,0.14
16,A20U U26C A28G U48C,0.24
17,A20G A28U U43A U72C,0.64
18,A20U A57G U72C,0.21
19,A20U A57G U72A,0.15
20,A20G G33A A64G,0.31
21,A20G U25C U41A U69C,0.07
22,A20U A56G U60A,0.39
23,A20U U25A U48A U54C,0.04
24,A20G U60A U80C,0.4

row,Variant,self-cleavage
1,A20G A35G U78C,1.21
2,A20U A35G U43C U60G U72C U78C,0.11
3,A20U A28U U41C U72A,0.32
4,A20G U26C U51C G63A A64G,0.12
5,A20G U54G A64G A77U,0.39
6,A20G U60C A65C A75G,0.24
7,A20U A57G C62U A75G,0.12
8,A20G G46U U49C A77G U78A,0.15
9,A20U U25C C40U A47U A64U,0.15
10,A20U C27A U54G U60C G73A,0.11
11,A20G G24C U60C U67C,0.08
12,A20G A28G U60C,0.31
13,A20U A35G U41G A77U,0.07
14,A20G U41C U49A A56G,0.49
15,A20U A21G U31C U43C U48C,0.07
16,A20G G53U U67C,1.17
17,A20G U78C U80C,0.63
18,A20G U26C A64U,0.11
19,A20G U49A A64G A75U U80C,0.43
20,A20G C32U U54G U69A,0.05
21,A20G U25C U26C U66C U67C U80C,0.45
22,A20G A28U C39U U60C,0.15
23,A20G U41A A47G A56G,0.29
